One assay concerns the target T1, recombinant murine CD80 (murine, UniProt Q00609 38-246).
T1 construct: CD80, murine (recombinant, R&D systems); source: bought: R&D systems
T1 sequence (looked up): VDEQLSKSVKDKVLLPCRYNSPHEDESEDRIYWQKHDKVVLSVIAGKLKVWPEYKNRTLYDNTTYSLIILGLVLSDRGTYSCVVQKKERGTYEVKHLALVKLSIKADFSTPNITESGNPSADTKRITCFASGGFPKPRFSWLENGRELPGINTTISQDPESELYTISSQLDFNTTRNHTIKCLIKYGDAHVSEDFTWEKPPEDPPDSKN
The assay is described as follows: SPR; Biacore T200, 25 °C; HYBRI immobilised on CM5 chip by amine coupling (two ligand densities); analytes in PBS-P, 15.6-2000 nM, 30 µL/min, 90 s injection, 240 s dissociation; steady-state analysis and kinetic fit with 1:1 Langmuir model. As to conditions: both partners purified. A general note: Surface plasmon resonance follows binding to a sensor surface in real time, without labels.

The next assay deals with T2, recombinant murine PD-1 (murine, UniProt Q02242 25-169).
T2 construct: PD-1, murine (recombinant, R&D systems); source: bought: R&D systems
T2 sequence (looked up): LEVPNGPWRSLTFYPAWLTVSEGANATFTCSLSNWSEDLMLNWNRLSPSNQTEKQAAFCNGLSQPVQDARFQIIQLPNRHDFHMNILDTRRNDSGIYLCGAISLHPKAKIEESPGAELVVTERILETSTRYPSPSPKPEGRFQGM
The assay is described as above. As to conditions: both partners purified.

Where “and” joins values, the source holds several entries; their conditions need not be identical. Equal values may be shown once.

B1: HYBRI, human fusion recombinant protein with CTLA4 and PD-L2 domains (Fc fusion)
chain 1: [about 120 residues omitted here]
chain 2: LFTVTVPKELYIIEHGSNVTLECNFDTGSHVNLGAITASLQKVENDTSPHRERATLLEEQLPLGKASFHIPQVQVRDEGQYQCIIIYGVAWDYKYLTLKVKASYRKINTHILKVPETDEVELTCQATGYPLAEVSWPNVSVPANTSHSRTPEGLYQVTSVLRLKPPPGRNFSCVFWNTHVRELTLASIDLQSQMEPRTHPT
In the case of B1, in the assay with recombinant murine CD80, the Kd is 3.72 µM and 3.62 µM; the koff is 0.568 s⁻¹; the kon was 157000 M⁻¹ s⁻¹. Moreover, in the assay with recombinant murine PD-1, the Kd was 52.9 µM and 49.1 µM; the koff was found to be 3.19 s⁻¹; the kon amounted to 63700 M⁻¹ s⁻¹.

The Kd is the free concentration of one partner at which half of the binding sites on the other are occupied at equilibrium, for simple one-to-one binding. As usually defined, the koff is a measure of how fast the partners let go of each other. As usually defined, the kon is the rate constant with which the complex forms.

(Values after PMC7865252, “Dual and Opposite Costimulatory Targeting with a Novel Human Fusion Recombinant Protein Effectively Prevents Renal Warm Ischemia Reperfusion Injury and Allograft Rejection in Murine Models” (International Journal of Molecular Sciences, 2021).)
